From the supplement of paper PMC12217912
This is one part of the list. Sequences were assembled here from the parent chain. Values near 0.05 are background.

B1: TEV protease; numbered along this chain (parent)
chain: MGESLFKGPRDYNPISSSICHLTNESDGHTTSLYGIGFGPFIITNKHLFRRNNGTLVVQSLHGVFKVKDTTTLQQHLVDGRDMIIIRMPKDFPPFPQKLKFREPQREERICLVTTNFQTKSMSSMVSDTSCTFPSGDGIFWKHWIQTKDGQCGSPLVSTRDGFIVGIHSASNFTNTNNYFTSVPKNFMELLTNQEAQQWVSGWRLNADSVLWGGHKVFMVKPEEPFQPVKEATQL

Variants of: B1
Assay: raw area under fraction-flipped curve 0-4 h after induction (AUC4h, not background-subtracted), DNA-recorder readout of cleavage of the substrate (dimensionless); higher = more cleavage of the substrate by the protease variant
Details: temperature: 34 °C; time window: 0-4 h after rhamnose induction
Experimental: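 In vivo DNA recorder in E. coli TOP10(DE3) ΔrhaA at 34 °C. Each TEVp single-site mutant (parent TEVp 0) is paired with a single-site variant of the 7-mer TEVs (canonical ENLYFQ|S). The substrate sits between flexible linkers in a Bxb1-sfGFP-TEVs-SsrA fusion, so cleavage stabilises Bxb1 and speeds flipping of a recombination array, read by NGS. The value is the raw area under the fraction-flipped curve over 0-4 h after rhamnose induction (AUC4h), with ≥20 reads per time point. It is not background-subtracted; inactive controls average about 0.047.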
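Further: Bxb1 expression induced with 0.2% (w/v) L-rhamnose at OD600 near 0.5, cultures sampled hourly, flipped fraction per protease–substrate barcode pair counted by paired-end Illumina sequencing.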

MGESLFKGPRDYNPISSSICHLTNESDGHTTSLYGIGFGPFIITNKHLFRRNNGTLVVQSLHGVFKVKDTTTLQQHLVDGRDMIIIRMPKDFPPFPQKLKFREPQREERICLVTTNFQTKSMSSMVSDTSCTFPSGDGIFWKHWIQTKDGQCGSPLVSTRDGFIEGIHSASNFTNTNNYFTSVPKNFMELLTNQEAQQWVSGWRLNADSVLWGGHKVFMVKPEEPFQPVKEATQL [V165E]
area with substrate ENLAFQS: 0.0563 | area with substrate ENLCFQS: 0.05 | area with substrate ENLDFQS: 0.0588 | area with substrate ENLEFQS: 0.0567 | area with substrate ENLFFQS: 0.0524 | area with substrate ENLGFQS: 0.0628 | area with substrate ENLHFQS: 0.0586 | area with substrate ENLIFQS: 0.0474 | area with substrate ENLKFQS: 0.0701 | area with substrate ENLLFQS: 0.0432 | area with substrate ENLMFQS: 0.0595 | area with substrate ENLNFQS: 0.0492 | area with substrate ENLPFQS: 0.0581 | area with substrate ENLRFQS: 0.0542 | area with substrate ENLSFQS: 0.0695 | area with substrate ENLVFQS: 0.0615 | area with substrate ENLWFQS: 0.0516

MGESLFKGPRDYNPISSSICHLTNESDGHTTSLYGIGFGPFIITNKHLFRRNNGTLVVQSLHGVFKVKDTTTLQQHLVDGRDMIIIRMPKDFPPFPQKLKFREPQREERICLVTTNFQTKSMSSMVSDTSCTFPSGDGIFWKHWIQTKDGQCGSPLVSTRDGFIVGIHSASNFTNTNNYFTSVPKNFMELLTNQEAQQWVSGWRLNADSVLWGGHKVFMVKPEAPFQPVKEATQL [E224A]
area with substrate ENLAFQS: 0.0476 | area with substrate ENLCFQS: 0.0818 | area with substrate ENLDFQS: 0.0612 | area with substrate ENLFFQS: 0.104 | area with substrate ENLGFQS: 0.0545 | area with substrate ENLHFQS: 0.0738 | area with substrate ENLIFQS: 0.0801 | area with substrate ENLKFQS: 0.0591 | area with substrate ENLLFQS: 0.0737 | area with substrate ENLMFQS: 0.0855 | area with substrate ENLNFQS: 0.0604 | area with substrate ENLPFQS: 0.0725 | area with substrate ENLQFQS: 0.0613 | area with substrate ENLRFQS: 0.0769 | area with substrate ENLSFQS: 0.063 | area with substrate ENLVFQS: 0.0779 | area with substrate ENLWFQS: 0.0945

MGESLFKGPRDYNPISSSICHLTNESDGHTTSLYGIGFGPFIITNKHRFRRNNGTLVVQSLHGVFKVKDTTTLQQHLVDGRDMIIIRMPKDFPPFPQKLKFREPQREERICLVTTNFQTKSMSSMVSDTSCTFPSGDGIFWKHWIQTKDGQCGSPLVSTRDGFIVGIHSASNFTNTNNYFTSVPKNFMELLTNQEAQQWVSGWRLNADSVLWGGHKVFMVKPEEPFQPVKEATQL [L48R]
area with substrate ENLAFQS: 0.0687 | area with substrate ENLCFQS: 0.0579 | area with substrate ENLDFQS: 0.065 | area with substrate ENLEFQS: 0.0694 | area with substrate ENLFFQS: 0.0685 | area with substrate ENLGFQS: 0.0642 | area with substrate ENLHFQS: 0.0586 | area with substrate ENLKFQS: 0.0633 | area with substrate ENLLFQS: 0.0704 | area with substrate ENLMFQS: 0.0583 | area with substrate ENLNFQS: 0.0677 | area with substrate ENLPFQS: 0.058 | area with substrate ENLQFQS: 0.0532 | area with substrate ENLRFQS: 0.0773 | area with substrate ENLSFQS: 0.0565 | area with substrate ENLVFQS: 0.0488 | area with substrate ENLWFQS: 0.053

MGESLFKGPRDYNPISSSICHLTNESDGHTTSLYGIGFGPFIITNKHWFRRNNGTLVVQSLHGVFKVKDTTTLQQHLVDGRDMIIIRMPKDFPPFPQKLKFREPQREERICLVTTNFQTKSMSSMVSDTSCTFPSGDGIFWKHWIQTKDGQCGSPLVSTRDGFIVGIHSASNFTNTNNYFTSVPKNFMELLTNQEAQQWVSGWRLNADSVLWGGHKVFMVKPEEPFQPVKEATQL [L48W]
area with substrate ENLAFQS: 0.0579 | area with substrate ENLCFQS: 0.066 | area with substrate ENLDFQS: 0.0674 | area with substrate ENLEFQS: 0.0734 | area with substrate ENLFFQS: 0.0646 | area with substrate ENLGFQS: 0.0733 | area with substrate ENLHFQS: 0.0599 | area with substrate ENLIFQS: 0.0818 | area with substrate ENLKFQS: 0.0444 | area with substrate ENLMFQS: 0.0582 | area with substrate ENLNFQS: 0.0592 | area with substrate ENLPFQS: 0.0658 | area with substrate ENLQFQS: 0.0549 | area with substrate ENLRFQS: 0.06 | area with substrate ENLSFQS: 0.0558 | area with substrate ENLTFQS: 0.0669 | area with substrate ENLVFQS: 0.0647 | area with substrate ENLWFQS: 0.0567

MGESLFKGPRDYNPISSSICHLTNESDGHTTSLYGIGFGPFIITNKHAFRRNNGTLVVQSLHGVFKVKDTTTLQQHLVDGRDMIIIRMPKDFPPFPQKLKFREPQREERICLVTTNFQTKSMSSMVSDTSCTFPSGDGIFWKHWIQTKDGQCGSPLVSTRDGFIVGIHSASNFTNTNNYFTSVPKNFMELLTNQEAQQWVSGWRLNADSVLWGGHKVFMVKPEEPFQPVKEATQL [L48A]
area with substrate ENLAFQS: 0.0614 | area with substrate ENLCFQS: 0.0725 | area with substrate ENLDFQS: 0.0688 | area with substrate ENLEFQS: 0.0707 | area with substrate ENLFFQS: 0.0645 | area with substrate ENLHFQS: 0.0627 | area with substrate ENLIFQS: 0.0731 | area with substrate ENLKFQS: 0.0536 | area with substrate ENLMFQS: 0.0644 | area with substrate ENLNFQS: 0.0562 | area with substrate ENLPFQS: 0.0611 | area with substrate ENLQFQS: 0.0695 | area with substrate ENLSFQS: 0.0542 | area with substrate ENLVFQS: 0.0697 | area with substrate ENLWFQS: 0.0624

MGESLFKGPRDYNPIISSICHLTNESDGHTTSLYGIGFGPFIITNKHLFRRNNGTLVVQSLHGVFKVKDTTTLQQHLVDGRDMIIIRMPKDFPPFPQKLKFREPQREERICLVTTNFQTKSMSSMVSDTSCTFPSGDGIFWKHWIQTKDGQCGSPLVSTRDGFIVGIHSASNFTNTNNYFTSVPKNFMELLTNQEAQQWVSGWRLNADSVLWGGHKVFMVKPEEPFQPVKEATQL [S16I]
area with substrate ENLAFQS: 0.113 | area with substrate ENLDFQS: 0.0979 | area with substrate ENLEFQS: 0.0679 | area with substrate ENLFFQS: 0.0793 | area with substrate ENLGFQS: 0.0513 | area with substrate ENLHFQS: 0.0734 | area with substrate ENLIFQS: 0.0763 | area with substrate ENLKFQS: 0.0788 | area with substrate ENLLFQS: 0.0824 | area with substrate ENLNFQS: 0.0703 | area with substrate ENLPFQS: 0.0625 | area with substrate ENLRFQS: 0.052 | area with substrate ENLSFQS: 0.0625

MGESLFKGPRDYNPIRSSICHLTNESDGHTTSLYGIGFGPFIITNKHLFRRNNGTLVVQSLHGVFKVKDTTTLQQHLVDGRDMIIIRMPKDFPPFPQKLKFREPQREERICLVTTNFQTKSMSSMVSDTSCTFPSGDGIFWKHWIQTKDGQCGSPLVSTRDGFIVGIHSASNFTNTNNYFTSVPKNFMELLTNQEAQQWVSGWRLNADSVLWGGHKVFMVKPEEPFQPVKEATQL [S16R]
area with substrate ENLAFQS: 0.0631 | area with substrate ENLCFQS: 0.0734 | area with substrate ENLDFQS: 0.0688 | area with substrate ENLEFQS: 0.0629 | area with substrate ENLFFQS: 0.105 | area with substrate ENLHFQS: 0.0703 | area with substrate ENLIFQS: 0.0983 | area with substrate ENLKFQS: 0.0877 | area with substrate ENLMFQS: 0.08 | area with substrate ENLNFQS: 0.0677 | area with substrate ENLPFQS: 0.0572 | area with substrate ENLQFQS: 0.0704 | area with substrate ENLSFQS: 0.0381 | area with substrate ENLVFQS: 0.0774 | area with substrate ENLWFQS: 0.0738

MGESLFKGPRDYNPISSSICHLTNESDGHTTSLYGIGFGPFIITNKHLFRRNNGTLVVQSLHGVFKVKDTTTLQQHLVDGRDMIIIRMPKDFPPFPQKLKFREPQREERICLVTTNFQTKSMSSMVSDTSCTFPSGDGIFWKHWIQTKDGQCGSPLVSTRDGFIVGIHSASNFTNTNNYFTSVPKNFMELLTNQEAQKWVSGWRLNADSVLWGGHKVFMVKPEEPFQPVKEATQL [Q198K]
area with substrate ENLAFQS: 0.0733 | area with substrate ENLCFQS: 0.0683 | area with substrate ENLDFQS: 0.0619 | area with substrate ENLEFQS: 0.07 | area with substrate ENLFFQS: 0.0854 | area with substrate ENLHFQS: 0.0769 | area with substrate ENLIFQS: 0.0953 | area with substrate ENLKFQS: 0.078 | area with substrate ENLLFQS: 0.117 | area with substrate ENLNFQS: 0.0691 | area with substrate ENLPFQS: 0.0641 | area with substrate ENLQFQS: 0.0695 | area with substrate ENLRFQS: 0.0777 | area with substrate ENLSFQS: 0.0605 | area with substrate ENLTFQS: 0.0633 | area with substrate ENLVFQS: 0.0782
